Sequences with one replicate were seen in a single cluster, so their values are uncertain.
System: ATP
Assay: switch fluorescence ratio, 500 uM ATP over buffer (Cy3 cluster intensity, sum of 5 cycles each) (fold (ratio)); higher = stronger signal-on switching upon ATP binding; sequences stand for … in TCGTCGGCAGCGTCAGATGTGTATAAGAGACAGTTTTTTTTTTTTTTTTTTTTTTTTT…TC
Conditions: aptamer strand: ATP DNA aptamer (quencher-CACCTGGGGGAGTATTGCGGAGGAAGG + anchor), 100 nM annealed; ATP concentration: 500 uM; one replicate
Summary of the method: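 Five buffer/ATP imaging cycles were run on Cy3-labelled switching-strand clusters on a modified Illumina MiSeq flow-cell, with NaOH stripping and re-annealing between cycles. In each cycle, clusters annealed to 100 nM quencher-labelled ATP aptamer were imaged in selection buffer, then after 15 min with 500 uM ATP at 22 °C. Per cluster, the fluorescence ratio is summed target-cycle over summed buffer-cycle Cy3 intensity, averaged per switch-domain sequence. Only clusters within 100-1000 RFU were kept.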
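Also: ATP exposure 15 min at 22 °C before imaging.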

Sequence	switch fluorescence ratio
TTCCAACATC	1.12
CTCTGTAGC	1.35
TGGCTGTTCT	1.01
GACGTCAAAC	1.07
ATATGTTGAT	1.01
CTTACCGGTT	1.02
CCCGGTCA	1.03
GGTCATATCA	1.03
CGCGAAAACT	1.4
AGTGACTCGG	1.01
GTAGACTAGG	0.986
CGTTCTAACC	1.01
TAAGCAGTTC	1.38
AGGACCGGC	0.883
AATCGGGTGG	1.07
TGAATGCCTT	1.03
CATTGGTCCG	0.992
CGTATGGGTT	1.01
TCTATAACAC	1.04
GCTTCCCTTT	1.06
TCTACCAACT	1.09
CAGCTTGA	0.985
GACATATTTG	1
GCTATGCGCG	0.984
GGTACCTTGT	1.05
ATGCAAGAGT	1.05

Sequence	switch fluorescence ratio
AGGGCCCCCT	1.39
CGCTTTGAGA	0.996
GAGCGGCAGG	0.989
CGCCGCCGGT	1.07
TCCCTTGATC	1.06
GAAAAGTGGG	0.973
GTCGAGAGTA	0.973
AAGGCTACGG	1.01
CTCGAATATC	1.5
CGCGCAGGGC	2.05
TCCGAACGTG	2.98
GTTAGCGGTA	0.946
GGGATTGTTC	0.966
ATCTGGGCTA	1.04
AACCACGCGC	1.13
ATGGGTAACT	0.947
GAAAGTCGGT	0.982
ACTCGAAGCT	1.03
AAAGTCAGTG	1.03
GTGGAATTAG	1.01
AAACTGCTTT	0.972
ATGCCAACAC	1.12
GTCTAAGGAG	0.974
AAGCCTTTAC	1.28
AGATTAGTAA	1.08
GTTATTCATC	1.02

Sequence	switch fluorescence ratio
TTTCCGAGCG	1.09
TCCTGCGGAA	3.58
CAGACGTTTG	0.991
GGCTTCCTTT	1.18
AAGCGGGA	1.02
CATCCTCTTA	1.03
CGAAACTCAG	1.01
CTAGTAGACT	1.06
TTTAGCGGT	1.02
TTTCAGCTAG	0.956
CATGTAATA	1.03
AGGTCCTAG	1.01
GATAGTAGGC	1.06
TGGCGGTGGG	1
ACTTTGCGGG	1.01
GCGTCTGACT	0.937
TGGACTTACA	1.31
TGGCTTCGCA	1.14
AAGGCAGACA	1.03
TAGAAGAGTC	0.99
CGCACCCCGG	2.13
TATCGTGTC	0.934
CTCGCTTGTG	1.01
GACTTGTAAT	1.04
GCTACCCTCA	1.04
GAGGGACACA	1.07

Sequence	switch fluorescence ratio
CTGTTAGGAA	0.952
TTTGGCGATA	0.999
CGAGCCAGTA	1.19
GTTATATTTC	0.98
TCGGTCCGAC	0.955
TATGAAGTTT	1
AGCGAATTGA	1.03
AGATCGCTGG	0.97
GGTGGGTACC	0.999
GAAGGAAGCG	0.982
TCGGTCTTC	0.987
TAAGGGGCCG	1.11
AGGTTGTGGA	0.976
CAGGTGTCTC	1.4
TGATTCGCAA	3.74
ATTAAACAGC	0.964
CTCTCACTCA	1.05
TCTGATGTC	0.96
TCATTGGTTC	0.977
AGGTGGTATG	0.958
GAGGGTGGG	0.956
CCCCCGTCGT	1.31
ATAAAGCATG	1
CGAGTTGGA	1.01
ATCAGCGAGT	0.989
TAGCAACAA	1.39

Sequence	switch fluorescence ratio
CTCGCAAAAT	2.6
AGCTTTTAG	0.962
AATGTGGCAA	1.08
CCAATTAAGT	0.997
GCCGACACGC	1.07
CTCCTGTCTG	1.03
GACCAGTACT	1.28
GACGTTGAAA	1.02
TGGACGTTA	1.13
TGCTGAATTC	0.911
TTACCCGGCC	1.15
TAATGCTCT	1.03
GAATTCCTAT	0.998
CCTGCCAACA	1.67
AGGATATAGA	0.964
ATTCTGCATG	1.01
CGAATAGTGG	0.998
TAAAAGGTAG	0.95
GTCGCCTTGA	0.99
ATGCTAGGAC	1.06
GCGGAGCGGT	1.13
AGATGAACGG	1.01
CAGGTGTCCT	1.2
GTCCGTCTGT	1.06
ATCCCGCTCT	0.95
GCCCTATGGA	1.03

Sequence	switch fluorescence ratio
GGTTACGGTT	0.938
TAGTCAACCT	1.51
CCTAATTGTG	0.95
GTATGCGAGA	0.938
AGCGTGAGTT	0.981
TATGCACTGT	1.07
TTGGTTTGCA	1.01
CGAAGGTTAC	1.97
TTTATACGTG	0.974
TAACGACACA	1.55
GACGAAAAAA	1.04
TGCTTAACCG	1.04
GTAGTATCTT	0.991
CGGGCTGGCG	1.26
GAAAAGCCGC	1.08
GATTAGAGAT	1.03
ATGATCAAAG	1.02
ATAACCGCAT	2.2
TTCAGATTGA	0.995
GAAGCGAGGT	1.02
GAGTTCGTTA	1.01
CCTCTATTCC	1.31
TAGTGACGA	1.04
GTTGCGGAAC	1
